Data: the supplement of paper PMC4466236
Whole data set: some 33,000 sequences, median “E-score (dimensionless, -0.5 to 0.5)” near -0.058, cut for the highest 2% near 0.35. This is one part of the list.

The sequences below were run on MvaT (assay: PBM 8-mer E-score (mean of HK and ME arrays) (E-score (dimensionless, -0.5 to 0.5)); higher = stronger relative binding preference; most listed sequences are background and not binding sites).
In short: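 Full-length P. aeruginosa MvaT carrying an N-terminal glutathione S-transferase tag was tested by protein binding microarray following a previously described protocol. Two universal double-stranded 60-mer arrays, ME and HK, were used, each with a constant 25-mer primer region and a variable 35-mer region covering all 8-mers. The rank-based E-score is the mean of the two arrays, parsed with a custom script. Its range runs from -0.5 to 0.5 for each 8-mer.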

Sequence	PBM 8-mer E-score
AATCCTGG	-0.0944
GCTCGCGA	-0.215
GATAGGTA	0.0113
ACATTTAG	0.177
TCGATCGA	0.000441
CGCCGTGC	-0.185
CTTAGGAC	-0.185
CCCACGAA	-0.163
TCCAGTAA	0.0231
TACTAGCA	0.0141
AGTGTTTG	0.258
AGCTACAC	-0.0931
CGGCTGAC	-0.201
CTTCTCGC	-0.152
ATTTCGCC	-0.201
CGTTTCTA	-0.00644
ATCATGAG	-0.0671
GATACCTA	0.031
CGGTTGCA	-0.0698
ACGAATCG	-0.0371
CGGAGCCG	-0.18
GATACAGA	-0.156
AGCGAACG	-0.229
TCTTAGCA	0.0165
AGTAAGTG	0.135

Sequence	PBM 8-mer E-score
AGTGACCA	-0.126
GGCGCGAA	-0.231
GTGAACAC	0.00148
CGCGCGAC	-0.072
AAAGGGGA	-0.151
TCCGAACA	0.127
ACACTGTG	-0.11
ACACGCAC	-0.0903
GACACACA	0.101
ATCCGCCC	-0.162
ACGCCACG	-0.168
CCGCCAGA	-0.0664
CAGAAGGG	-0.293
CGTACCAC	-0.115
GCTACCCC	-0.227
AACACCTA	0.0374
CACGCAAC	-0.034
ACGGTCAC	-0.141
CCCATGCC	-0.133
CAGCAGCC	-0.202
CGATACTC	-0.0359
CCGTGAGG	-0.322
AGACGTAC	0.0372
AACCTCTC	-0.0112
AACGGCCG	0.00384

Sequence	PBM 8-mer E-score
CCCAGGCA	-0.262
GTAACTTA	0.37
GGTTTCAC	-0.273
GGCTGGGA	-0.264
GCCTCTCA	-0.295
CATCCCGA	-0.0328
GTATAAAA	0.216
ACACCTAT	0.106
TGTTAGAA	0.16
CTGTTGGC	-0.0873
ATGCGGAG	-0.193
AGTTCTAT	0.194
ACAACATG	0.184
ACGAGTGA	-0.0472
TCGTTAGA	-0.0242
CGTATGGC	-0.21
GTCTTGGA	-0.00209
CCGCGCCC	-0.155
AAGAGTAC	-0.0268
AATAGAGC	0.107
GGCCCGGA	-0.27
TCTCAAGA	-0.0252
CAAAATCA	0.127
CGAGGTCA	-0.161
GCTCCCGA	-0.296

Sequence	PBM 8-mer E-score
AGCTGCGC	-0.214
AGGGAAGG	-0.191
TAAATCTA	0.183
CCATTCTC	-0.0842
ACTTGCGC	0.123
CGGTGTAG	-0.157
ATAGTACA	0.247
AACGCAAT	0.207
AAGCATCA	-0.105
ACCACTTC	-0.167
GATGGTGC	-0.153
AGGTGCTA	-0.145
ATGAACTA	0.152
ACGTCTTC	-0.0415
ACCTATGC	-0.24
CGCGTTAG	-0.087
ATACGTGA	0.0838
CCCAGCCA	-0.172
ATGTCTAG	0.0376
CCTCGGTA	-0.139
CGGCATAG	-0.079
TATTTTAA	0.41
CCCATCAG	-0.277
ACCCCAGC	-0.103
CCCGACAG	-0.197

Sequence	PBM 8-mer E-score
ATTACGAA	0.206
ACGCAAAC	0.026
ATATGAAT	0.288
AGGCCGGC	-0.26
CCCGTTAG	-0.00293
AGGTCCTC	-0.26
AGCGTGAA	-0.185
TAGGCAGA	-0.116
GCTGGGCA	-0.217
GAGTGATC	-0.195
ATTTACGA	0.167
ATCTGACC	-0.125
AAGACCGC	-0.193
CATCATCG	-0.118
CCACCTAG	-0.113
ACCAACTA	0.14
TCCGGAGA	-0.156
TTACACAA	0.212
TCGCTGCA	-0.0624
CTGGATTA	0.212
ATACTCGA	0.162
CGCGCGCG	0.133
CTGTAGAC	-0.132
AACGTAGC	-0.0969
ATGACTTA	0.00279

Sequence	PBM 8-mer E-score
GCTGCTCC	-0.222
CACGGAAG	-0.108
GAGCGCGA	-0.147
ACATGGGC	-0.0383
TCCGCTAA	-0.0171
ACCCTTCT	-0.195
CGCCGTCA	-0.138
CGCTGTAC	-0.228
GAGGCGAC	-0.276
AGCAACTA	0.0916
CCTTAGTC	0.026
CAAAGTTA	0.265
ATCTTAAT	0.232
CTGGTTAC	0.0697
CAAGCGAA	-0.227
TCGGCCCA	-0.157
ATTTGGGG	-0.0637
GGCTCGGA	-0.2
TCGTTACA	0.0528
GGTAGGGA	-0.155
AAGGCCGG	-0.208
GCTTAGAA	0.181
CTGTAGCA	-0.0514
AATCCATC	-0.0434
CAGGTTGA	-0.174

Sequence	PBM 8-mer E-score
CCTCCATC	-0.235
CACATAGG	-0.0828
AAAATAAG	0.331
ATTGCTTC	-0.0649
AAAACAAC	0.282
ATCGCGGC	-0.0882
CCATGCAG	-0.193
ACATTTCT	0.265
AGGGCAAC	0.114
CACTCAAG	-0.0585
AACCGGCA	-0.118
CGAACGCA	-0.0442
GCGCCTCA	-0.168
ATTTCCAG	0.181
CCCATATC	-0.0129
CCCTTAAA	0.0558
CGCAACAA	0.297
GCTTCTAA	0.0601
CTAAGAAA	0.017
ACTACCCT	-0.128
ACCCTTAA	0.035
AGCTGCAC	-0.122
GACTCCAC	-0.0919
ACTCTTTG	0.0293
CCAACCAC	-0.123

Sequence	PBM 8-mer E-score
AACTCACA	0.0884
TCGGGCCA	-0.231
ACAGGGGT	-0.121
AGCAGCAA	-0.0844
GGGCGGGA	-0.214
AGCGTTTG	0.0257
CGGAGTGC	-0.169
ACCAACAC	0.0519
CCGTCCAA	-0.136
GCAGGCAC	-0.273
ACGACCGT	-0.176
AGGATCGC	-0.241
CGAGTACA	0.0588
CGCCCCAA	-0.115
GCTGTCCC	-0.209
CGTTTCTC	-0.096
AGCGTGCC	-0.322
ACTGGCTA	-0.0991
CTCAGTAC	-0.097
GAGTTCCA	-0.16
CAACAAGA	0.176
AGGACCAA	-0.206
AACTCCAA	0.118
CATAAAAG	0.159
CCACCTAC	-0.148

Sequence	PBM 8-mer E-score
AGATAGGA	-0.071
ACATCGAA	0.154
AGGAGTAG	-0.19
ACTTACAT	0.343
AGAAACAC	0.052
CCCGCTAC	-0.247
CCTCTGTC	-0.129
CACGTAAA	-0.0431
AAAAGGAT	0.0697
GACGTCAC	-0.19
ACCATAAC	0.196
CGTAGGAA	-0.131
ACAGCCGT	-0.211
AGACCTGG	-0.207
TCATTAGA	0.0266
ATTACTAC	0.261
TCGCGCCA	-0.125
ATTAGCAG	0.201
AGTTTCGA	0.193
CCATTGGC	-0.3
ATGGATGG	-0.109
CGGCTCGA	-0.188
TCTAGTAA	0.0881
CATCCTGG	-0.174
ATTACCGG	0.0376

Sequence	PBM 8-mer E-score
GCTAGCGA	-0.181
ACGGAGAC	-0.0662
GATTAACA	0.278
ACAAAGCG	-0.0812
GGCGTATA	0.0954
ACCGAACC	-0.085
ATGCTAGA	0.0338
AAGTTATA	0.442
AACGAAAA	0.105
AACGAGAA	5.73e-05
CTTACGTA	-0.0291
CTAACTCC	0.0568
TTATCGAA	0.22
ATCGTAGA	-0.126
TAGTCGGA	-0.0242
ATAAGAAA	0.24
ACTAACCG	-0.072
ACCCGAGT	-0.153
AACTTTCC	0.315
TACCTACA	0.0674
ACTCGGGC	-0.223
ATGATGTA	0.168
AGCACATA	0.14
ATTTCCCC	0.0663
GATGCACA	0.00969

Sequence	PBM 8-mer E-score
GTTGTCGA	0.00974
GGTATTTA	0.27
AAAAGAAG	0.0172
ACGGACCG	-0.239
GAACTTGA	0.266
ATGCTTTC	-0.146
CTAACCGC	-0.111
CCGGAGAG	-0.196
AGGTGGTG	-0.0424
CTATAGAA	0.103
GATGATCC	-0.00943
GCGGGAAC	-0.274
AACCTCCA	-0.115
GACTGCGA	-0.115
GATGGTGA	-0.0523
CCCACCAC	-0.143
ACCGCCTG	-0.238
ATCTACCA	0.122
GAGTGACA	-0.172
GAGGACTA	-0.228
CTAACGTC	-0.213
CGCTGGAG	-0.194
CACGAACG	-0.246
ATGCCTAA	0.00896
AAGAAGCG	-0.0282

Sequence	PBM 8-mer E-score
CGATTCAC	-0.0249
AACTGGAC	0.0417
ATACGCAA	0.107
ACTGGGGA	-0.123
AGTCTTGA	-0.0451
AGGACACG	-0.309
AATTATCA	0.325
CCGGGCTC	-0.267
ACGCCAAG	-0.228
GAACGAGC	-0.255
AGGGTCGC	-0.264
AATAAGCA	0.251
AGGGATAG	-0.216
AGATCGGC	-0.141
CTAGTTCA	0.0957
ATTTAGAC	0.125
GCGCGTAA	0.0794
TACTGATA	0.185
AGTCACAC	-0.0915
CTTTTTGC	0.0809
AGATGTAG	0.0855
GCAGCGTA	-0.0147
AAAGGCCT	-0.233
AAAGAACC	0.108
CTGACCGA	-0.113

Sequence	PBM 8-mer E-score
GCTCTCCA	-0.273
AACTTTCA	0.351
AGAAAGAA	0.073
GCTGCTGA	-0.12
AGGTGCGA	-0.0523
AACCCCCG	-0.297
AACCCCAG	-0.189
AACTGCGA	0.0683
ATTTTTCC	0.0867
CTGGAAGA	-0.00863
CCAACGCC	-0.167
ATTGCAAC	0.102
AAACCGGG	-0.183
TAGATAGA	0.188
TCATTCGA	-0.0454
CAAGCTGG	-0.17
AGCTAAAG	-0.183
GGCTGCGA	-0.254
CAGTCCGC	-0.193
CACCGTGG	-0.246
AAACCTTA	0.175
AAACTATA	0.334
ACTACGTG	-0.0922
CATCAAAG	-0.0265
ATGCGAGA	-0.0612

Sequence	PBM 8-mer E-score
ACGACGCC	-0.263
CAAATACC	0.197
CCGCTGCC	-0.297
GGTAGTTA	0.212
ACGCTGGG	-0.144
CGGCGGGC	-0.219
GTGATTCA	0.0125
CGATGGAG	-0.147
CGTACGAC	-0.239
CAGATCAC	-0.0846
GGAGTCGA	-0.193
CGTAATTA	0.31
ATGGACGG	-0.147
AGGCAAGG	-0.222
CGGCAGGC	-0.255
ACATATAC	0.287
ACTGGGAT	-0.00488
AGATGAGC	-0.114
TATGTAGA	0.184
